In the supplement of paper PMC9446081 one finds relative growth data, which are given here for 39 molecules.

About 220 (0.56%) of roughly 39,000 compounds showed activity. The list shows a part of the results.
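Note: static incubation at 37 °C against the wild-type strain, values averaged over two biological replicates.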

The subject of the experiment is Escherichia coli K-12 BW25113. Nature of the experiment: relative growth (OD600 normalised to plate interquartile mean) (fraction); higher = less growth inhibition, active = 0.2 or less. The settings on record: 50 µM; LB; incubation time: overnight (16-24 h).
On to `COc1ccc(S(=O)(=O)N(C)C[C@H]2OCCCC[C@@H](C)Oc3ccc(NS(C)(=O)=O)cc3C(=O)N([C@@H](C)CO)C[C@H]2C)cc1`, for which the relative growth was inactive: 0.963. Turning to `C[C@H](CO)N1C[C@H](C)[C@@H](CN(C)C(=O)c2ccncc2)Oc2cc(C#CC3(O)CCCC3)ccc2S1(=O)=O`, the relative growth was inactive: 1. As to `CN1C(=O)c2cc(NC(=O)Cc3cccs3)ccc2OC[C@@H]2O[C@@H](CC(=O)NCCc3ccncc3)CC[C@H]21`, the relative growth is inactive: 1.

Take `C[C@@H]1CN([C@@H](C)CO)C(=O)c2cccc(NS(C)(=O)=O)c2O[C@@H]1CN(C)S(=O)(=O)c1ccc(Cl)cc1`: the relative growth was inactive: 0.83. With `O=C(CCCCCNC(=O)OCCCCO[C@@H]1C[C@H](c2ccc(C(F)(F)F)cc2)C=C(C(=O)N2CCN(Cc3ccccc3)CC2)O1)NO` the figure was inactive: 1.02; with `C[C@@H]1CN([C@@H](C)CO)C(=O)Cc2cc(NC(=O)c3ccncc3)ccc2O[C@@H]1CN(C)S(=O)(=O)c1ccc(Cl)cc1`, inactive: 0.984. As for `C[C@H]1CN([C@@H](C)CO)C(=O)CCCn2cc(nn2)CO[C@@H]1CN(C)C(=O)c1ccc(N2CCN(C)CC2)cc1`, the relative growth is inactive: 0.988. Take `CCN1C(=O)[C@H]2[C@H]3[C@H](O)[C@H](O)C/C(=N\OC[C@@H](O)COCc4ccco4)[C@@H]3CC[C@H]2C1=O`: the relative growth was inactive: 0.989. For `Cc1noc(C)c1S(=O)(=O)Nc1cccc2c1O[C@@H](CN(C)C(=O)Nc1ccccc1)[C@@H](C)CN([C@@H](C)CO)C2=O`, the relative growth is inactive: 0.918. For the molecule `Cc1ccc(S(=O)(=O)N(C)C[C@@H]2OCCCC[C@H](C)Oc3ccc(NC(=O)CCC(F)(F)F)cc3C(=O)N([C@H](C)CO)C[C@@H]2C)cc1`, the relative growth was inactive: 1.04.

In the case of `C[C@@H]1CN([C@H](C)CO)C(=O)Cc2cc(NC(=O)Nc3ccccc3)ccc2O[C@H]1CN(C)C(=O)Nc1cccc2ccccc12`, the relative growth was inactive: 1.01. Regarding `C[C@@H]1CCCCO[C@@H](CN(C)C(=O)Nc2ccccc2)[C@@H](C)CN([C@H](C)CO)C(=O)c2cc(NC(=O)Nc3ccc4c(c3)OCO4)ccc2O1`, the relative growth was inactive: 1. Consider `C[C@H]1[C@H]([Si](C)(C)F)[C@@H](CC(=O)N2Cc3ccccc3C[C@H]2CO)O[C@]12C(=O)N(c1ccccc1)c1ccccc12`, for which the relative growth was inactive: 1.02.

Consider `COc1ccc(S(=O)(=O)N(C)C[C@@H]2Oc3c(NC(=O)Nc4cccc5ccccc45)cccc3C(=O)N([C@H](C)CO)C[C@H]2C)cc1`, for which the relative growth is inactive: 1.01. With `C[C@@H]1CCCCO[C@H](CN(C)Cc2ccc(C(F)(F)F)cc2)[C@@H](C)CN([C@@H](C)CO)C(=O)c2cc(NC(=O)c3ccncc3)ccc2O1` the figure was inactive: 0.967. `CC(C)(O)c1ccccc1CCC(SCC1(CC(=O)[O-])CC1)c1cccc(C=Cc2ccc3ccc(Cl)cc3n2)c1.[Na+]` (centres undefined): the relative growth is inactive: 0.742. Turning to `COc1ccc(CN(C)C[C@@H]2OCCCC[C@@H](C)Oc3ccc(NC(=O)C4CCCCC4)cc3C(=O)N([C@H](C)CO)C[C@H]2C)cc1`, the relative growth is inactive: 0.985. With `Cn1cnc(S(=O)(=O)N2CC[C@@H](O)[C@@H]2Cc2cnn(C)c2)c1` the figure was inactive: 0.979; with `COc1ccc(S(=O)(=O)Nc2ccc3c(c2)C(=O)N([C@H](C)CO)C[C@@H](C)[C@H](CN(C)Cc2ccc(Cl)c(Cl)c2)OCCCC[C@H](C)O3)cc1`, inactive: 0.989; with `Cc1ccc(S[C@]2(C(=O)NC(C)C)CC(=O)N(Cc3cc(C(F)(F)F)cc(C(F)(F)F)c3)[C@@H]2c2ccc(CO)cc2I)cc1`, inactive: 0.977. Turning to `COc1ccccc1CNC(=O)C[C@H]1C[C@@H]2c3cc(NC(=O)c4ccc5c(c4)OCO5)ccc3O[C@@H]2[C@@H](CO)O1`, the relative growth was inactive: 1.01. As to `C[C@H]1CCCCO[C@H](CN(C)C(=O)C2CCCCC2)[C@@H](C)CN([C@@H](C)CO)C(=O)c2cc(NC(=O)c3ccncc3)ccc2O1`, the relative growth is inactive: 0.97.

For `CC#N`, the relative growth is inactive: 0.993. With `C[C@@H]1CN([C@@H](C)CO)C(=O)c2cccc(NC(=O)Nc3ccccc3)c2O[C@H]1CN(C)CC1CCCCC1` the figure was inactive: 0.99; with `O=C(C[C@@H]1C[C@@H]2c3cc(NS(=O)(=O)c4ccc(F)cc4)ccc3O[C@@H]2[C@@H](CO)O1)NC1CCCC1`, inactive: 0.981.

Consider `C[C@H](CO)N1C[C@H](C)[C@@H](CN(C)S(=O)(=O)c2ccc(Cl)cc2)Oc2ccc(NC(=O)Cn3cnnn3)cc2C1=O`, for which the relative growth is inactive: 1.02. In the case of `CN(C)Cc1cn(CC[C@@H]2CC[C@H](NS(=O)(=O)c3ccccc3)[C@H](CO)O2)nn1`, the relative growth is inactive: 1.01.

For the molecule `CNC[C@H]1Oc2ccc(NC(=O)Cn3cnnn3)cc2C(=O)N([C@@H](C)CO)C[C@H]1C`, the relative growth was inactive: 0.988. On to `C[C@@H]1CCCCO[C@H](CN(C)C(=O)NC2CCCCC2)[C@@H](C)CN([C@@H](C)CO)C(=O)c2cc(NC(=O)c3ccncc3)ccc2O1`, for which the relative growth was inactive: 0.998. `C[C@@H]1CCCCO[C@H](CN(C)C(=O)Nc2ccccc2)[C@@H](C)CN([C@H](C)CO)C(=O)c2cc(NC(=O)c3ccccc3)ccc2O1`: the relative growth is inactive: 1.

On to `C[C@@H]1CN([C@H](C)CO)C(=O)c2cc(-c3cncnc3)cnc2O[C@H]1CN(C)C(=O)CN1CCOCC1`, for which the relative growth was inactive: 1.01. For the molecule `N#Cc1cccc(NCCN2CCNC2=O)n1`, the relative growth is inactive: 1.01. As for `COc1ccc(S(=O)(=O)Nc2cccc3c2O[C@H](CN(C)C(=O)Nc2c(C)noc2C)[C@H](C)CN([C@H](C)CO)C3=O)cc1`, the relative growth was inactive: 0.987. Turning to `Cn1cnc(=O)c2ccccc21`, the relative growth was inactive: 1.01. As to `Cc1ccc(-c2cnc3c(c2)C(=O)N([C@@H](C)CO)C[C@H](C)[C@H](CN(C)C(=O)Cc2ccncc2)O3)cc1`, the relative growth was inactive: 1.01. As to `CCCNC(=O)C[C@H]1CC[C@H]2[C@@H](COc3ccc(NC(=O)c4ccc5c(c4)OCO5)cc3C(=O)N2C)O1`, the relative growth is inactive: 1.01.

Consider `CN(C)CCOc1ccc(CN)cc1`, for which the relative growth is inactive: 0.969. With `COCC#Cc1ccc2c(c1)O[C@@H](CN(C)S(=O)(=O)c1ccc(OC)cc1)[C@H](C)CN([C@@H](C)CO)S2(=O)=O` the figure was inactive: 1.03; with `C[C@H]1CN([C@@H](C)CO)C(=O)c2cc(NC(=O)CCCN(C)C)ccc2O[C@H]1CN(C)Cc1ccc2c(c1)OCO2`, inactive: 0.985.
